Hit rate of the full screen: of about 3,200 compounds, about 110 (3.4%) showed an effect of 50% or more. The list shows a part of the results.

The subject of the assay is T1, V. cholerae SAD30.
T1 construct: SAD30
Details: species or system S. aureus MSSA476 (TSB) or V. cholerae SAD30 (LB); 384-well bacterial growth screen at 25 uM, OD600 relative to DMSO control. The following applies: relative growth, OD600, LB; 25 µM; inhibitor.
Regarding `N#CC(=Cc1cccc(Oc2ccccc2)c1)C(=O)NC(N)=O` [8-D07, {2-cyano-2-[(3-phenoxyphenyl)methylidene]acetyl}urea], the “% of control remaining” value is reported as 81.1013%.

Consider `CCc1cccc(CC)c1NC(=O)C(C#N)=Cc1ccc(C)o1` [8-P11, 2-cyano-N-(2,6-diethylphenyl)-3-(5-methylfuran-2-yl)prop-2-enamide], for which the “% of control remaining” value was found to be 57.308%.

`C=CC(=O)NCc1c(C)nc2ccccn12` [1-C08, N-({2-methylimidazo[1,2-a]pyridin-3-yl}methyl)prop-2-enamide]: the “% of control remaining” value is recorded as 93.2735%.

As for `CC(=Cc1ccccc1)C=C(C#N)C(=O)NC1CC1` [9-F12, 2-cyano-N-cyclopropyl-4-methyl-5-phenylpenta-2,4-dienamide], the “% of control remaining” value is given as 87.8994%.

As for `C=CC(=O)NCCCn1ccnc1C#N` [2-N05, N-[3-(2-cyano-1H-imidazol-1-yl)propyl]prop-2-enamide], the “% of control remaining” value was determined as 93.5926%.

On to `CCOc1ccc(C=C(C#N)C(=O)Nc2ccncc2)cc1` [8-I22, 2-cyano-3-(4-ethoxyphenyl)-N-(pyridin-4-yl)prop-2-enamide], for which the “% of control remaining” value was determined as 87.4915%.

With `Cc1ccc(NC(=O)C(C#N)=Cc2ccc3c(c2)OCCO3)c(C)c1` [9-H03, 2-cyano-3-(2,3-dihydro-1,4-benzodioxin-6-yl)-N-(2,4-dimethylphenyl)prop-2-enamide], the “% of control remaining” value stood at 99.3202%.

`CC(Cl)C(=O)N[C@H]1C[C@@H]1c1cnn(-c2ccccc2)c1` (mixture of isomers) [7-M08, rac-2-chloro-N-[(1R,2S)-2-(1-phenyl-1H-pyrazol-4-yl)cyclopropyl]propanamide]: the “% of control remaining” value stood at 70.3122%.

With `CC(Cl)C(=O)NCCc1nnnn1-c1ccccc1` (centres unmarked) [7-G17, 2-chloro-N-[2-(1-phenyl-1H-1,2,3,4-tetrazol-5-yl)ethyl]propanamide], the “% of control remaining” value amounted to 78.3744%.

Take `Cc1ccccc1N1C(=O)C=CC1=O` [10-J13, 1-(2-methylphenyl)-2,5-dihydro-1H-pyrrole-2,5-dione]: the “% of control remaining” value was found to be 23.0664%.

Take `C=CC(=O)N1CCCC(n2cncn2)C1` (centres unmarked) [2-C03, 1-[3-(1H-1,2,4-triazol-1-yl)piperidin-1-yl]prop-2-en-1-one]: the “% of control remaining” value was 109.65%.

On to `Cc1noc(C23CC(CN2C(=O)C(C)Cl)C3)n1` (centres unmarked) [7-E10, 2-chloro-1-[1-(3-methyl-1,2,4-oxadiazol-5-yl)-2-azabicyclo[2.1.1]hexan-2-yl]propan-1-one], for which the “% of control remaining” value is on record as 77.9779%.

Regarding `CC(Cl)C(=O)N1C2C=C(c3ccccc3)CC1CC2` (centres unmarked) [7-C09, 2-chloro-1-{3-phenyl-8-azabicyclo[3.2.1]oct-2-en-8-yl}propan-1-one], the “% of control remaining” value came to 69.9157%.

Turning to `Cl.O=C(CN1CCN(C(=O)CCl)CC1)Nc1ccc(F)cc1` [4-J20, 2-[4-(2-chloroacetyl)piperazin-1-yl]-N-(4-fluorophenyl)acetamide hydrochloride], the “% of control remaining” value worked out at 97.8219%.

On to `N#CC(=Cc1ccccc1)C(=O)Nc1nnn[nH]1` [8-J14, 2-cyano-3-phenyl-N-(1H-1,2,3,4-tetrazol-5-yl)prop-2-enamide], for which the “% of control remaining” value came to 68.1849%.

On to `N#CC(=Cc1ccc([N+](=O)[O-])c(Cl)c1)C(=O)NC1CCCCC1` [8-B08, 3-(3-chloro-4-nitrophenyl)-2-cyano-N-cyclohexylprop-2-enamide], for which the “% of control remaining” value is given as 77.2944%.

Regarding `C=CC(=O)N1CCC(c2ccnn2C)CC1` [2-I15, 1-[4-(1-methyl-1H-pyrazol-5-yl)piperidin-1-yl]prop-2-en-1-one], the “% of control remaining” value is 94.8278%.

With `CC(Cl)C(=O)N(Cc1cccs1)[C@@H]1C=C[C@H](CO)C1` (stereo partly drawn) [7-E14, 2-chloro-N-[(1S,4R)-4-(hydroxymethyl)cyclopent-2-en-1-yl]-N-[(thiophen-2-yl)methyl]propanamide], the “% of control remaining” value stood at 72.8234%.

Regarding `O=C(CCl)c1ccc2[nH]c(=O)[nH]c2c1` [10-I14, 5-(2-chloroacetyl)-2,3-dihydro-1H-1,3-benzodiazol-2-one], the “% of control remaining” value stood at 105.513%.

On to `N#CC(=Cc1cccc(O)c1)C(=O)NCCc1ccccc1` [8-N03, 2-cyano-3-(3-hydroxyphenyl)-N-(2-phenylethyl)prop-2-enamide], for which the “% of control remaining” value was found to be 85.4521%.

Turning to `COCCNC(=O)C(C#N)=Cc1ccc(O)cc1` [9-D22, 2-cyano-3-(4-hydroxyphenyl)-N-(2-methoxyethyl)prop-2-enamide], the “% of control remaining” value stood at 97.0088%.

Take `C=CC(=O)N(Cc1cc(F)c(F)c(F)c1)C(C)C1CCCO1` (centres unmarked) [1-L13, N-[1-(oxolan-2-yl)ethyl]-N-[(3,4,5-trifluorophenyl)methyl]prop-2-enamide]: the “% of control remaining” value is on record as 84.006%.

Turning to `C=CC(=O)N1CC(c2ncon2)C1` [2-I03, 1-[3-(1,2,4-oxadiazol-3-yl)azetidin-1-yl]prop-2-en-1-one], the “% of control remaining” value was determined as 109.804%.

For `Cc1nc(C)c(C(=O)CCl)o1` [10-N08, 2-chloro-1-(2,4-dimethyl-1,3-oxazol-5-yl)ethan-1-one], the “% of control remaining” value is recorded as 41.4572%.

`Cc1ccc(C=C(C#N)C(=O)NC(C)C)o1` [8-I21, 2-cyano-3-(5-methylfuran-2-yl)-N-(propan-2-yl)prop-2-enamide]: the “% of control remaining” value stood at 78.9259%.

`COc1ccc(CCNC(=O)C(C)Cl)cc1` (centres unmarked) [5-D12, 2-chloro-N-[2-(4-methoxyphenyl)ethyl]propanamide]: the “% of control remaining” value was 91.9618%.

In the case of `C=CC(=O)N1CCC(C(=O)N2CCC(c3ncco3)CC2)CC1` [2-B06, 1-{4-[4-(1,3-oxazol-2-yl)piperidine-1-carbonyl]piperidin-1-yl}prop-2-en-1-one], the “% of control remaining” value was determined as 96.2173%.

For the molecule `CC(C)NC(=O)C(C#N)=Cc1ccc(Cl)cc1Cl` [9-K07, 2-cyano-3-(2,4-dichlorophenyl)-N-(propan-2-yl)prop-2-enamide], the “% of control remaining” value came to 86.6757%.

`C=CCNC(=O)C(C#N)=Cc1ccc(C#N)cc1` [8-O07, 2-cyano-3-(4-cyanophenyl)-N-(prop-2-en-1-yl)prop-2-enamide]: the “% of control remaining” value came to 73.0795%.

For the origin of these results see publication PMC11995724, “Antibiotic target discovery by integrated phenotypic and activity-based profiling of electrophilic fragments” (Cell chemical biology, 2025).
